Laboratory results taken from PubChem BioAssay AID624296 (National Center for Advancing Translational Sciences (NCATS), 2012).
Screen size: about 350,000 compounds; about 9,900 (2.8%) were called active. Inconclusive means that the source gave no clear call. Such entries were picked first, then a sample of the others. The call rests on the fitted dose curve; in most records, active means well fitted activation curve with a large enough effect; inconclusive means small, poorly fitted or top-dose-only effect; inactive means no such curve, though single readings can be large or run the other way. Potencies of inconclusive entries are left out as doubtful fits.
Potency means the concentration at half of the fitted maximal effect; tags describe the fitted curve by direction and shape.

Test: A quantitative high throughput screen for small molecules that induce DNA re-replication in MCF 10a normal breast cells. Further: nearly all actives have a fitted effect of over 50% in size. On activity, positive = re-replication: % of control where 0% means no effect.
Conditions: MCF 10A DNA re-replication, Hoechst nuclear intensity, 48 h; activity, positive = re-replication: at 46.1 µM (top of the series)
In the case of `c1ccc(-c2nnc(N3CCN(c4ccccn4)CC3)c3ccccc23)cc1`, the Potency is reported as inconclusive [activator, single point].
With `Cc1nn(CC(=O)Nc2ccc(C(C)C)cc2)c(C)c1[N+](=O)[O-]` the “activity, positive = re-replication” value was inactive: -4.71%.
In the case of `Cc1[nH]c2ccccc2c1C(=O)C(C)OC(=O)C1CCC1` (stereo not given), the “activity, positive = re-replication” value is reported as inactive: -3.92%.
For `CCCCN(C(=O)CSc1nnc(Nc2ccc(C)c(C)c2)s1)c1c(N)n(Cc2ccccc2)c(=O)[nH]c1=O`, the Potency was inconclusive [activator, single point].
With `COc1cc(SC)ccc1C(=O)Nc1ncc(C)s1` the Potency was inconclusive [activator, single point].
For `CCOC(=O)c1ccc(N/C(=N\S(=O)(=O)c2ccc(F)cc2F)c2ccccc2)cc1`, the “activity, positive = re-replication” value was inactive: 2.45%.
With `COc1ccc(CNC(=O)CN(Cc2ccccc2)S(=O)(=O)c2ccc(Cl)cc2)cc1` the “activity, positive = re-replication” value was inactive: -0.503%.
With `COc1ccc(C2c3c(C)nn(-c4ccccc4)c3NC(=O)N2c2ccccc2)cc1` (stereo not given) the Potency was inconclusive [activator, single point].
In the case of `O=[N+]([O-])/C=C/c1cn(Cc2ccc(Cl)cc2)c2ccccc12`, the Potency is reported as active: 5.8 µM.
For `Cc1cc(SCC(=O)NCCC2=CCCCC2)nc2ccccc12`, the Potency was inconclusive [activator, single point].
For `COC(=O)c1c(C(=O)OC)c2ccccn2c1C(=O)c1ccc([N+](=O)[O-])cc1`, the Potency was inconclusive [activator, partial curve, poor fit].
For `COC(=O)C1=C(C)NC(=O)NC1c1ccccc1Cl` (stereo not given), the Potency was inconclusive [activator, single point].
In the case of `Cc1cc(=O)oc2c(C)c(OC(C)C(=O)NCCCN3CCOCC3)ccc12` (stereo not given), the “activity, positive = re-replication” value is reported as inactive: -9.62%.
With `CC(=O)Nc1ccccc1/C=C/c1ccc2c(C)ccc(O)c2n1` the Potency was inconclusive [activator, single point].
With `CC(=O)Nc1ccccc1` the Potency was “inactive”.
For `O=C1[C@H](Cc2ccccc2)NCC=CC[C@@H](c2ccc(Cl)cc2)N1Cc1ccc(Cl)cc1`, the Potency was inconclusive [activator, single point].
With `COc1ccc(OC)c(NC(=O)CSc2nc3cccnc3n2C)c1` the Potency was inconclusive [activator, partial curve, poor fit].
For `Cc1cc(-c2ccccc2)n[nH]1`, the Potency was active: 0.651 µM.
For `O=C(CCC(=O)N1CCCC1)Nc1nnc(C(F)(F)F)s1`, the Potency was inconclusive [activator, single point].
With `Cc1cccc(N=Nc2c(O)[nH]c3ccc(F)cc23)c1` the Potency was inconclusive [activator, single point].
